Values joined by “and” are separate entries in the source; they are usually repeats but may differ in a detail not shown here. Equal entries are not always repeated. Among all 150,000 compounds or so, about 6,500 (4.3%) were called active. The inconclusive results got no clear call from the source; some entries with a clear call stand among them for comparison. Calls follow the shape of the dose curve; as a rule, active = well fitted inhibition curve with a large enough effect (not every such curve was filed as active); inconclusive = small, poorly fitted or top-dose-only effect, or another doubt; inactive = no such curve, though single readings can be large or run the other way. A potency beside an inconclusive call is a rough fit, not a confirmed value.
target: 15-hydroxyprostaglandin dehydrogenase [NAD(+)] (Homo sapiens) (UniProt P15428); assay: qHTS Assay for Inhibitors of HPGD (15-Hydroxyprostaglandin Dehydrogenase); conditions: purified HPGD, NADH fluorescence kinetic, PGE2 substrate; activity change, negative = inhibition: active compounds read low
Sequence of UniProt P15428 (P15428 whole entry, looked up): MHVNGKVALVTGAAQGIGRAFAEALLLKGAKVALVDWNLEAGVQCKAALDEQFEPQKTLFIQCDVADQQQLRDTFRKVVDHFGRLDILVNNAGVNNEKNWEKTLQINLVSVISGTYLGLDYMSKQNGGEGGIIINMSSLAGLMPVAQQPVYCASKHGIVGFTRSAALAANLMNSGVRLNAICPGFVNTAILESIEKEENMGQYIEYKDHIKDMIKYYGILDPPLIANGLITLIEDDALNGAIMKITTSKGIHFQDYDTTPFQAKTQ
Procedure, shortened: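 NADH formation kinetics: reaction with 30 uM PGE2 and 1 mM NAD+ (final), 20 nM enzyme, Tris-HCl pH 8 with Tween 20, after 15 min compound preincubation at room temperature. Fluorescence change, last versus first of five reads.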
% is scaled to controls: 0 for no effect and ±100 for the full control effect; potency is read from the fitted curve at half-maximal effect; tags tell the direction and shape of the fitted curve.

Row | Compound | Potency | activity change, negative = inhibition
1 | CCc1ccc(CCC(=O)Nc2sc(C)c(C)c2C(=O)OC)o1 | inconclusive: 25.1 µM [inhibitor, partial curve] | –
2 | COc1ccccc1CN1CCC2(CC1)CCN(C(C)=O)CC2 | – | inactive: -7.25%
3 | CCCn1c(=O)c(C(=O)NNS(=O)(=O)c2ccc(Cl)cc2)c(O)c2ccccc21 | – | inactive: -19.5%
4 | CCOC(=O)CSc1n[nH]c(-c2ccco2)n1 | inconclusive: 22.4 µM [inhibitor, partial curve] | –
5 | Cc1cccc(NC(=O)CSc2nnc(-c3ccco3)c(-c3ccco3)n2)c1C | active: 10 µM | –
6 | CC(C)[C@H](Nc1ncnc2nc[nH]c12)C(=O)O | – | inactive: -5.22%
7 | O=C(COC(=O)c1ccccc1NC(=O)c1ccco1)NCc1ccc2c(c1)OCO2 | inconclusive: 39.8 µM [inhibitor, partial curve] | –
8 | C=CCNC(=O)c1onc(CSc2ccccc2CC)c1C(=O)O | inconclusive: 39.8 µM [inhibitor, single point] | –
9 | Cc1c(Cl)ccc2c1NC(=O)[C@]21N[C@@H](Cc2ccccc2)[C@H]2C(=O)N(c3ccc(F)cc3)C(=O)[C@H]21 | – | inactive: -11.7%
10 | N#CC(C#N)=C/C(C#N)=C(/N)N1CCN(c2ccc(Cl)cc2)CC1 | inconclusive: 31.6 µM [inhibitor, partial curve] | –
11 | O=C1Cc2ccccc2C(=O)N1Cc1ccccc1 | inconclusive: 5.01 µM [inhibitor, full curve] | –
12 | Cc1cc(=O)oc2c(C(=O)/C=C\c3cccs3)c(O)ccc12 | inconclusive: 20 µM [inhibitor, partial curve] | –
13 | CCCCNC(=S)N(C)/N=C/c1ccc(F)cc1 | active: 28.2 µM | –
14 | Cc1nc2ccccn2c1C(=O)N/N=C/c1cc(C)n(-c2ccc(Br)cc2)c1C | – | inactive: -11.9%
15 | Cc1ccc(NC(=O)C2C3/C=C\CCCCC32)cc1 (centres undefined) | – | inactive: -1.93%
16 | Nc1c2ccccc2nc2ccccc12 | inconclusive: 11.2 µM [inhibitor, partial curve] and inconclusive: 15.8 µM [inhibitor, partial curve] | –
17 | CCOC(=O)c1sc(N(Cc2ccccc2)C(=O)COC(=O)c2ccccc2O)nc1C | active: 20 µM | –
18 | O=C(Cc1cccc2ccccc12)N/N=C/c1ccc(Sc2cccc3cccnc23)o1 | inconclusive: 25.1 µM [inhibitor, single point] | –
19 | Cc1cccc2cc(C#N)c(SCc3nnc(-c4ccccc4[N+](=O)[O-])o3)nc12 | inconclusive: 3.98 µM [inhibitor, partial curve, poor fit] | –
20 | Cc1ccc(C(=O)Nc2ccc(Br)cc2)cc1S(=O)(=O)Nc1ccccn1 | inconclusive: 20 µM [inhibitor, partial curve] | –
21 | CN1CCC(=C2c3ccccc3Sc3ccccc32)CC1 | – | inactive: -0.327% and inactive: 2.32%
22 | O=C(CSc1nc2cc(Cl)ccc2o1)N1CCOCC1 | – | inactive: -14%
23 | Cc1nc(N2CCN(C(=O)c3ccco3)CC2)c2c3c(sc2n1)CCCC3 | active: 15.8 µM | –

Row | Compound | Potency | activity change, negative = inhibition
24 | Cc1[nH]nc(-c2ccc(OCc3cnn(-c4ccccc4)c3)cc2O)c1Oc1ccc(F)cc1 | inconclusive: 31.6 µM [inhibitor, single point] | –
25 | Cc1cccc(C2=NN(c3ccc(Br)cc3)[C@@H](C(=O)N3CCOC3=O)[C@@H]2c2ccccc2)c1 | inconclusive: 25.1 µM [inhibitor, partial curve] | –
26 | O=C(CSc1nccn1-c1cccc(Cl)c1)NC1CCCC1 | active: 15.8 µM | –
27 | CC12CC[C@@H]3c4ccc(OS(=O)(=O)O)cc4CC[C@H]3C1CCC2=O (some centres undefined) | – | inactive: 0.982%
28 | CCCCCn1c(=O)[nH]c2cc(C(=O)O)ccc2c1=O | inconclusive: 31.6 µM [inhibitor, partial curve] | –
29 | CCOC(=O)c1oc2nc(CC(C)C)c3c(c2c1N)CCC3 | inconclusive: 28.2 µM [inhibitor, partial curve] | –
30 | Cc1ccc(-c2nn3c(C)nnc3c3ccccc23)cc1S(=O)(=O)NCc1ccco1 | inconclusive: 11.2 µM [inhibitor, partial curve] | –
31 | COC(=O)C(NC(C)=O)(Nc1nc2c(s1)CCCC2)C(F)(F)F (centres undefined) | inconclusive: 31.6 µM [inhibitor, single point] | –
32 | COc1cccc2cc(C(=O)C3=C(O)C(=O)N(CCN(C)C)C3c3ccc(F)cc3)oc12 (centres undefined) | – | inactive: -9.36%
33 | Oc1nc(Nc2ccc(Cl)cc2Cl)sc1/C=C1\C=Nc2ccccc21 | inconclusive: 28.2 µM [inhibitor, partial curve, poor fit] | –
34 | CCOc1ccc(S(=O)(=O)N2CCN(c3ccc(OC)cc3)CC2)c2cccnc12 | – | inactive: -2.5%
35 | COc1ccc(-c2nc3cnc(N4CCN(C)CC4)nc3n(CCC#N)c2=O)cc1 | inconclusive: 28.2 µM [inhibitor, partial curve] | –
36 | CCOc1nc(-c2ccccc2)ccc1-c1noc(COc2ccccc2)n1 | inconclusive: 31.6 µM [inhibitor, partial curve] | –
37 | Clc1cccc(-c2cc3nc4c(c(N5CCN(c6cnccn6)CC5)n3n2)CCCC4)c1 | inconclusive: 25.1 µM [inhibitor, partial curve] | –
38 | CCn1c(C)c(C(C)=O)c(N2CCN(c3cccc(Cl)c3)CC2)nc1=S | inconclusive: 22.4 µM [inhibitor, partial curve] | –
39 | COC(=O)c1ccc2c(=O)n3c(nc2c1)SCC(c1ccccc1)=N3 | inconclusive: 25.1 µM [inhibitor, partial curve] | –
40 | COc1ccc2cc(-c3cc(C(=O)O)c4ccccc4n3)ccc2c1 | inconclusive: 11.2 µM [inhibitor, partial curve] | –
41 | Cc1ccccc1SCC(=O)NC1CCOC1=O (centres undefined) | – | inactive: -9.06%
42 | COc1ccc(CC(=O)Nc2cccc(C(=O)Nc3ccccc3C(=O)O)c2)cc1OC | inconclusive: 6.31 µM [inhibitor, full curve] | –
43 | O=C(COc1ccc(-c2nnc(N3CCCCC3)c3ccccc23)cc1)N1CCCCC1 | inconclusive: 22.4 µM [inhibitor, partial curve, poor fit] | –
44 | COC1=CC(=O)C(C(=O)c2ccccc2)=CC1=O | active: 4.47 µM | –
45 | COc1cc(/C=C2/SC(=S)NC2=O)ccc1OS(=O)(=O)c1ccc(C)cc1 | active: 10 µM | –
46 | CCc1cc(-c2n[nH]c(C)c2Oc2ccc(C(C)C)cc2)c(O)cc1O | inconclusive: 28.2 µM [inhibitor, partial curve] | –

Row | Compound | Potency | activity change, negative = inhibition
47 | Cc1ccc(OCC(=O)NC2CCCC2)c(C)c1 | active: 28.2 µM | –
48 | Cc1cc(C)c2c(n1)sc1c(-c3ccccc3)c(C#N)c(N)nc12 | inconclusive: 31.6 µM [inhibitor, partial curve] | –
49 | COC(=O)c1sccc1NC(=O)CSc1ccc(Cl)cc1 | – | inactive: -1.99%
50 | Cc1ccc(-n2c(O)c(C=NC3CCS(=O)(=O)C3)c3ccccc3c2=O)cc1C (centres undefined) | – | inactive: -18.6%
51 | COc1ccc(CNc2ccc3c(c2)ncn3-c2ccccc2OC)cc1 | inconclusive: 22.4 µM [inhibitor, partial curve] | –
52 | Cc1ccc(=O)n(-c2ccccc2)c1 | inconclusive: 35.5 µM [inhibitor, partial curve] and inconclusive: 22.4 µM [inhibitor, partial curve] | –
53 | CCN(CC)C(=O)CSc1nc2ccc(NC(=O)CSc3nccn3C)cc2s1 | active: 31.6 µM | –
54 | COc1ccc(-c2ccc(-c3noc(-c4ccccc4F)n3)c(OC)n2)cc1 | inconclusive: 8.91 µM [inhibitor, partial curve] | –
55 | CN(C)C(=O)c1ccc(-c2nc(NCc3ccccc3)c3ccccc3n2)cc1 | inconclusive: 25.1 µM [inhibitor, single point] | –
56 | O=C(CSCCO)Nc1ccc(C2CCCCC2)cc1 | active: 4.47 µM | –
57 | COC(=O)Cc1csc(Nc2ccccc2Cl)n1 | inconclusive: 28.2 µM [inhibitor, partial curve] | –
58 | COc1ccccc1N(C)S(=O)(=O)c1ccc(C(=O)Nc2ccc3nc(C)sc3c2)cc1 | inconclusive: 31.6 µM [inhibitor, single point] | –
59 | CCOC(=O)c1nn(-c2ccccc2F)c2nc(-c3ccco3)c(C#N)c(=O)n12 | inconclusive: 25.1 µM [inhibitor, single point] | –
60 | Nc1nnc(-c2cc3ccccc3oc2=O)s1 | inconclusive: 31.6 µM [inhibitor, partial curve] | –
61 | COc1ccc(/C=C2/C(=O)N(CC3CCCO3)C(=S)N2C)c(OC)c1 (centres undefined) | – | inactive: -18%
62 | Cc1ccc(NC(=O)c2noc3c2CC(C(C)(C)C)CC3)cc1 (centres undefined) | inconclusive: 35.5 µM [inhibitor, single point] | –
63 | Cc1ccc2[nH]c3c(c2c1)CCc1cn[nH]c1-3 | – | inactive: -12.7%
64 | Cc1cc2cc(CNC(=O)c3cccc([N+](=O)[O-])c3)ccc2[nH]1 | inconclusive: 5.01 µM [inhibitor, full curve, poor fit] | –
65 | CC1CC2(CCCCC2)Nc2c1ccc1ccccc21 (centres undefined) | inconclusive: 28.2 µM [inhibitor, partial curve] | –
66 | CCC(=O)Nc1cc2nn(-c3ccc(OC)cc3)nc2cc1C | inconclusive: 14.1 µM [inhibitor, partial curve] | –
67 | Cc1c(N=C2NC(=O)/C(=C/c3cccc([N+](=O)[O-])c3)S2)c(=O)n(-c2ccccc2)n1C | active: 2.51 µM | –
68 | Cc1ccc(-n2c(SCC(=O)NCC3CCCO3)nc3c(c2=O)SCC3)cc1 (centres undefined) | – | inactive: -27.2%
69 | CC(NCc1ccc2c(c1)OCO2)C(=O)N1CCc2ccccc21 (centres undefined) | – | inactive: -9.54%

— PubChem BioAssay AID894 (National Center for Advancing Translational Sciences (NCATS), 2007)
